# The list shows a part of the results.
# B1: PX9961T-pdi-555-33-555 (Parabacteroides distasonis) (protein)
# chain: FDEETAFQSPTLVYVNTVASLYNNMFKIMGNDRHVYDLNTFSSDEAMLPCRIGDWEDGGLWQNIFLHRWGTMNDLTKNSWDFLYEQIGKCNQSVDKLQAFAEEQPDVEYFKVYLEEVRAVRAFFYYELLDLFARVPLVTSSTTPMSEVKQSERSVVFNFVRSELEEALPYLSDNRSNQKGEYYGRITKPVAYMILAKLALNAEVYADDNWTDGNRPAGKNIKFTVDGKEMNAWEATIAYVDKLEALGYKLQGNFSENFAVANETSVENIFTVPMDPVAYPDAKDYNLVRTRHYDHATAYGQSGWNGSCATVKAMNVFKFGTADEDPRCKLTYFTGEVTGPDGKTIYTEWDGQKVPLKYEPNAPKVYMDASDGLLVKTAGARMAKYEFDQNAQDGGNLHGNDCVIFRFADALLMKAEAKIRLGQNGDDEVNQVRNRVGAKPLQNVTLDTLLDERMLELAWEGVRRQDLIRFGKFTEATVDRYVGVKHFASSLDYQEDKTGYTTVFSIYADILSLNPNLTQNPGY
# Assays:
# Test in all cases: glycan array binding signal (z-score within array); higher = stronger binding
# Settings in all cases: glycan notation: IUPAC condensed, linker removed
# [1] = molecular target: Neu5Ac(a2-3)Gal(b1-3)GalNAc
# Summary of the method: (§1)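 Columns mapping to the same glycan were averaged after glycan names were converted to IUPAC-condensed notation. The data come from 3228 arrays in the Consortium for Functional Glycomics database, limited to those with an available protein sequence. Binding is reported as a within-array Z-score averaged across arrays of one protein sequence and across linkers.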
# [2] = molecular target: Neu5Ac(a2-3)Gal(b1-3)GalNAc(b1-3)Gal(a1-4)Gal(b1-4)Glc
# Summary of the method: as §1
# [3] = molecular target: Neu5Ac(a2-3)Gal(b1-3)GalNAc(b1-4)[Neu5Ac(a2-3)]Gal(b1-4)Glc
# Summary of the method: as §1
# [4] = molecular target: Neu5Ac(a2-3)Gal(b1-3)GalNAc(b1-4)[Neu5Ac(a2-8)Neu5Ac(a2-3)]Gal(b1-4)Glc
# Summary of the method: as §1
# [5] = molecular target: Neu5Ac(a2-3)Gal(b1-3)GalNAc6S
# Summary of the method: as §1
# [6] = molecular target: Neu5Ac(a2-3)Gal(b1-3)GlcNAc
# Summary of the method: as §1
# [7] = molecular target: Neu5Ac(a2-3)Gal(b1-3)GlcNAc(b1-2)Man
# Summary of the method: as §1
# [8] = molecular target: Neu5Ac(a2-3)Gal(b1-3)GlcNAc(b1-2)Man(a1-3)[GlcNAc(b1-4)][Neu5Ac(a2-3)Gal(b1-3)GlcNAc(b1-2)Man(a1-6)]Man(b1-4)GlcNAc(b1-4)GlcNAc
# Summary of the method: as §1
# [9] = molecular target: Neu5Ac(a2-3)Gal(b1-3)GlcNAc(b1-2)Man(a1-3)[Neu5Ac(a2-3)Gal(b1-3)GlcNAc(b1-2)Man(a1-6)]Man(b1-4)GlcNAc(b1-4)GlcNAc
# Summary of the method: as §1
# [10] = molecular target: Neu5Ac(a2-3)Gal(b1-3)GlcNAc(b1-3)Gal(b1-3)GlcNAc
# Summary of the method: as §1
# [11] = molecular target: Neu5Ac(a2-3)Gal(b1-3)GlcNAc(b1-3)Gal(b1-4)GlcNAc
# Summary of the method: as §1
# [12] = molecular target: Neu5Ac(a2-3)Gal(b1-3)GlcNAc(b1-3)GalNAc
# Summary of the method: as §1
# [13] = molecular target: Neu5Ac(a2-3)Gal(b1-3)GlcNAc(b1-4)Gal(b1-4)Glc
# Summary of the method: as §1
# [14] = molecular target: Neu5Ac(a2-3)Gal(b1-3)GlcNAc(b1-6)GalNAc
# Summary of the method: as §1
# [15] = molecular target: Neu5Ac(a2-3)Gal(b1-3)GlcNAc6S
# Summary of the method: as §1
# [16] = molecular target: Neu5Ac(a2-3)Gal(b1-3)[Fuc(a1-4)]GlcNAc
# Summary of the method: as §1
# [17] = molecular target: Neu5Ac(a2-3)Gal(b1-3)[Fuc(a1-4)]GlcNAc(b1-3)Gal(b1-3)[Fuc(a1-4)]GlcNAc
# Summary of the method: as §1
# [18] = molecular target: Neu5Ac(a2-3)Gal(b1-3)[Fuc(a1-4)]GlcNAc(b1-3)Gal(b1-4)[Fuc(a1-3)]GlcNAc
# Summary of the method: as §1
# [19] = molecular target: Neu5Ac(a2-3)Gal(b1-3)[GlcNAc(b1-6)]GalNAc
# Summary of the method: as §1
# [20] = molecular target: Neu5Ac(a2-3)Gal(b1-3)[Neu5Ac(a2-6)]GalNAc
# Summary of the method: as §1
# [21] = molecular target: Neu5Ac(a2-3)Gal(b1-3)[Neu5Ac(a2-6)]GlcNAc(b1-3)[Fuc(a1-3)[Gal(b1-4)]GlcNAc(b1-6)]Gal(b1-4)Glc
# Summary of the method: as §1
# [22] = molecular target: Neu5Ac(a2-3)Gal(b1-3)]Neu5Ac(a2-3)Gal(b1-4)]GlcNAc
# Summary of the method: as §1
# Neu5Ac(a2-3)Gal(b1-4)Glc = molecular target: Neu5Ac(a2-3)Gal(b1-4)Glc
# Summary of the method: as §1
# [23] = molecular target: Neu5Ac(a2-3)Gal(b1-4)GlcNAc
# Summary of the method: as §1
# [24] = molecular target: Neu5Ac(a2-3)Gal(b1-4)GlcNAc(b1-2)Man
# Summary of the method: as §1
# [25] = molecular target: Neu5Ac(a2-3)Gal(b1-4)GlcNAc(b1-2)Man(a1-3)[GlcNAc(b1-4)][Neu5Ac(a2-3)Gal(b1-4)GlcNAc(b1-2)Man(a1-6)]Man(b1-4)GlcNAc(b1-4)GlcNAc
# Summary of the method: as §1
# [26] = molecular target: Neu5Ac(a2-3)Gal(b1-4)GlcNAc(b1-2)Man(a1-3)[Neu5Ac(a2-3)Gal(b1-4)GlcNAc(b1-2)Man(a1-6)]Man(b1-4)GlcNAc(b1-4)GlcNAc
# Summary of the method: as §1
# [27] = molecular target: Neu5Ac(a2-3)Gal(b1-4)GlcNAc(b1-2)Man(a1-3)[Neu5Ac(a2-3)Gal(b1-4)GlcNAc(b1-2)Man(a1-6)]Man(b1-4)GlcNAc(b1-4)[Fuc(a1-6)]GlcNAc
# Summary of the method: as §1
# [28] = molecular target: Neu5Ac(a2-3)Gal(b1-4)GlcNAc(b1-2)Man(a1-3)[Neu5Ac(a2-6)Gal(b1-4)GlcNAc(b1-2)Man(a1-6)]Man(b1-4)GlcNAc(b1-4)GlcNAc
# Summary of the method: as §1
# [29] = molecular target: Neu5Ac(a2-3)Gal(b1-4)GlcNAc(b1-2)[Neu5Ac(a2-3)Gal(b1-4)GlcNAc(b1-4)]Man(a1-3)[GlcNAc(b1-4)][Neu5Ac(a2-3)Gal(b1-4)GlcNAc(b1-2)[Neu5Ac(a2-3)Gal(b1-4)GlcNAc(b1-6)]Man(a1-6)]Man(b1-4)GlcNAc(b1-4)GlcNAc
# Summary of the method: as §1
# [30] = molecular target: Neu5Ac(a2-3)Gal(b1-4)GlcNAc(b1-2)[Neu5Ac(a2-3)Gal(b1-4)GlcNAc(b1-4)]Man(a1-3)[GlcNAc(b1-4)][Neu5Ac(a2-3)Gal(b1-4)GlcNAc(b1-4)Man(a1-6)]Man(b1-4)GlcNAc(b1-4)GlcNAc
# Summary of the method: as §1
# [31] = molecular target: Neu5Ac(a2-3)Gal(b1-4)GlcNAc(b1-2)[Neu5Ac(a2-3)Gal(b1-4)GlcNAc(b1-6)]Man(a1-6)[Neu5Ac(a2-3)Gal(b1-4)GlcNAc(b1-2)Man(a1-3)]Man(b1-4)GlcNAc(b1-4)GlcNAc
# Summary of the method: as §1
# [32] = molecular target: Neu5Ac(a2-3)Gal(b1-4)GlcNAc(b1-2)[Neu5Ac(a2-3)Gal(b1-4)GlcNAc(b1-6)]Man(a1-6)[Neu5Ac(a2-3)Gal(b1-4)GlcNAc(b1-2)Man(a1-3)][GlcNAc(b1-4)]Man(b1-4)GlcNAc(b1-4)GlcNAc
# Summary of the method: as §1
# [33] = molecular target: Neu5Ac(a2-3)Gal(b1-4)GlcNAc(b1-3)Gal
# Summary of the method: as §1
# [34] = molecular target: Neu5Ac(a2-3)Gal(b1-4)GlcNAc(b1-3)Gal(b1-3)GlcNAc
# Summary of the method: as §1
# [35] = molecular target: Neu5Ac(a2-3)Gal(b1-4)GlcNAc(b1-3)Gal(b1-4)GlcNAc
# Summary of the method: as §1
# [36] = molecular target: Neu5Ac(a2-3)Gal(b1-4)GlcNAc(b1-3)Gal(b1-4)GlcNAc(b1-2)Man(a1-3)[Neu5Ac(a2-3)Gal(b1-4)GlcNAc(b1-3)Gal(b1-4)GlcNAc(b1-2)Man(a1-6)]Man(b1-4)GlcNAc(b1-4)GlcNAc
# Summary of the method: as §1
# [37] = molecular target: Neu5Ac(a2-3)Gal(b1-4)GlcNAc(b1-3)Gal(b1-4)GlcNAc(b1-3)Gal(b1-4)GlcNAc
# Summary of the method: as §1
# [38] = molecular target: Neu5Ac(a2-3)Gal(b1-4)GlcNAc(b1-3)Gal(b1-4)GlcNAc(b1-3)Gal(b1-4)GlcNAc(b1-2)Man(a1-3)[Neu5Ac(a2-3)Gal(b1-4)GlcNAc(b1-3)Gal(b1-4)GlcNAc(b1-3)Gal(b1-4)GlcNAc(b1-2)Man(a1-6)]GalNAc
# Summary of the method: as §1
# [39] = molecular target: Neu5Ac(a2-3)Gal(b1-4)GlcNAc(b1-3)Gal(b1-4)GlcNAc(b1-3)GalNAc
# Summary of the method: as §1
# [40] = molecular target: Neu5Ac(a2-3)Gal(b1-4)GlcNAc(b1-3)Gal(b1-4)GlcNAc(b1-3)[Neu5Ac(a2-3)Gal(b1-4)GlcNAc(b1-3)Gal(b1-4)GlcNAc(b1-6)]GalNAc
# Summary of the method: as §1
# [41] = molecular target: Neu5Ac(a2-3)Gal(b1-4)GlcNAc(b1-3)Gal(b1-4)GlcNAc(b1-6)[Gal(b1-3)]GalNAc
# Summary of the method: as §1
# [42] = molecular target: Neu5Ac(a2-3)Gal(b1-4)GlcNAc(b1-3)Gal(b1-4)[Fuc(a1-3)]GlcNAc
# Summary of the method: as §1
# [43] = molecular target: Neu5Ac(a2-3)Gal(b1-4)GlcNAc(b1-3)GalNAc
# Summary of the method: as §1
# [44] = molecular target: Neu5Ac(a2-3)Gal(b1-4)GlcNAc(b1-3)[Neu5Ac(a2-3)Gal(b1-4)GlcNAc(b1-6)]GalNAc
# Summary of the method: as §1
binder,measurement,setting,value
B1,glycan array binding signal (z-score),[1],-0.041
same,glycan array binding signal (z-score),[2],-0.742
same,glycan array binding signal (z-score),[3],-0.112
same,glycan array binding signal (z-score),[4],-0.155
same,glycan array binding signal (z-score),[5],-0.237
same,glycan array binding signal (z-score),[6],-0.548
same,glycan array binding signal (z-score),[7],-0.451
same,glycan array binding signal (z-score),[8],0.166
same,glycan array binding signal (z-score),[9],-0.023
same,glycan array binding signal (z-score),[10],-0.414
same,glycan array binding signal (z-score),[11],-0.716
same,glycan array binding signal (z-score),[12],0.364
same,glycan array binding signal (z-score),[13],0.232
same,glycan array binding signal (z-score),[14],0.149
same,glycan array binding signal (z-score),[15],0.118
same,glycan array binding signal (z-score),[16],-0.461
same,glycan array binding signal (z-score),[17],-0.347
same,glycan array binding signal (z-score),[18],-0.031
same,glycan array binding signal (z-score),[19],0.051
same,glycan array binding signal (z-score),[20],-0.194
same,glycan array binding signal (z-score),[21],-0.614
same,glycan array binding signal (z-score),[22],-0.714
same,glycan array binding signal (z-score),Neu5Ac(a2-3)Gal(b1-4)Glc,-0.207
same,glycan array binding signal (z-score),[23],-0.032
same,glycan array binding signal (z-score),[24],0.548
same,glycan array binding signal (z-score),[25],-0.376
same,glycan array binding signal (z-score),[26],-0.299
same,glycan array binding signal (z-score),[27],0.57
same,glycan array binding signal (z-score),[28],-0.362
same,glycan array binding signal (z-score),[29],-0.127
same,glycan array binding signal (z-score),[30],0.676
same,glycan array binding signal (z-score),[31],0.519
same,glycan array binding signal (z-score),[32],-0.381
same,glycan array binding signal (z-score),[33],-0.461
same,glycan array binding signal (z-score),[34],-0.311
same,glycan array binding signal (z-score),[35],-0.536
same,glycan array binding signal (z-score),[36],1.31
same,glycan array binding signal (z-score),[37],-0.719
same,glycan array binding signal (z-score),[38],1.63
same,glycan array binding signal (z-score),[39],-0.786
same,glycan array binding signal (z-score),[40],-0.286
same,glycan array binding signal (z-score),[41],-0.622
same,glycan array binding signal (z-score),[42],-0.528
same,glycan array binding signal (z-score),[43],0.226
same,glycan array binding signal (z-score),[44],0.45
